Read counts are not given, so values of variants with three or more changes are uncertain.
B1: CPEB3 Ribozyme (parent)
chain: UAACAGGGGGCCACAGCAGAAGCGUUCACGUCGCAGCCCCUGUCAGAUUCUGGUGAAUCUGCGAAUUCUGCUGUAUAUCUC

Variants of: B1
Experiment: self-cleavage, relative activity (ratio to wild type); higher = more cleavage; in vitro, sequencing
Procedure, shortened: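 Barcoded CPEB3 ribozyme mutants, produced by rounds of error-prone PCR, self-cleaved while being transcribed with T7 RNA polymerase for 5 hours at 37°C and during a subsequent 15 min DNase I step before EDTA was added. Sequencing of template-switched cDNA on Illumina gave cleaved and total reads, and DNA sequencing assigned barcodes to variants. Each variant's relative activity is its cleaved/total read fraction divided by the unmutated ribozyme's fraction, averaged across three batches. A variant needed a minimum of 5 reads.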

| Variant | self-cleavage |
| --- | --- |
| UAACGGGGGGCCCCAGCAGAAGCGUUCACGUCGCAGCCCCUGUCAGAUUCUGGUGAAUCUGCGGAUUCUGCCGUAUGUCUC [A5G A13C A64G U72C A77G] | 0.35 |
| UAACGGGGGGCCCCAGCAGAAGCGUUCACGUCGCAGCCCCUGUCAGAUUCUGGUGAAUCUACGAGUUCUGCUGUAUAUCUC [A5G A13C G61A A65G] | 0.25 |
| UAACGGGGGGCCCCAGCAGAAGCGCUCACGUCGCAGCCCCCGUCGGAUUCUGGUGAAUCUGCGAAUUCUGCUGUAUAUCUC [A5G A13C U25C U41C A45G] | 0.06 |
| UAACGGGGGGCCCCAGCAGAAGCGUUCACGACGCAGCCCCUGUCAGACUCUGGUGAAUCUGCGAAUUCUGCUGUAUUUCUC [A5G A13C U31A U48C A77U] | 0.14 |
| UAACGGGGGGCCCCAGCAGAAGCGUUCACGUCGCAGCCCCCGUCAGAUUCUGGUGGAUCUGCGAAUUCUGCUGUAUAUCUC [A5G A13C U41C A56G] | 0.48 |
| UAACGGGGGGCCCCAGCAGAAGCGUUCACGUCGCAGCCCCUGACAGAUUCUGGUGAUUCUGCGAAUUCAGCUGUAUUUCUC [A5G A13C U43A A57U U69A A77U] | 0.21 |
| UAACGGGGGGCCGCGGCAGAUGCGUUCACGUCGCAGCCCCUGUCAGAUUCUGGUGAAUCUGCGAAUUCUGCUGUAUAUCUC [A5G A13G A15G A21U] | 0 |
| UAACGGGGGGCCGCGGCAGAAGCGUUCACGUCGCUGUCCCAGUCAGAUUCUGGUGAAUCUGCGAAUUCUGCCGUAUAUCUC [A5G A13G A15G A35U C37U U41A U72C] | 0.06 |
| UAACGGGGGGCCGCAGCGGAAGCGUUCGUGUCGCAGCCCCUGUCAGAUUCUGGUGAAUCUGCGAAUUCAGCUGUAUAUCUC [A5G A13G A18G A28G C29U U69A] | 0.07 |
| UAACGGGGGGCCGCAGCGGAAGCGUUCACGUCGCGGCCCCUGUCAGAUUCUGGUGAAUCUGCGAAUUCUGCCGUAUAUCUC [A5G A13G A18G A35G U72C] | 0.09 |
| UAACGGGGGGCCGCAGCGGAAGCGCUCACGUCGCAGCCCCUGUCAGAUUCUGGUGAAUCUGCGAAUUCUGCCGUAUAUCUC [A5G A13G A18G U25C U72C] | 0.05 |
| UAACGGGGGGCCGCAGCGGAAGCGUCCACGUCGCAGCCCCUGUCUGAUUCUGGUGAAUCUGCGAAUUCAGCUGUAUAUCUC [A5G A13G A18G U26C A45U U69A] | 0.05 |
| UAACGGGGGGCCGCAGCUGAAGCGUUCACGUCGCAGCCCCUGUCAGAUUCUGGUGAAUCUGCGAAUUCUGCUGUAUAUCUC [A5G A13G A18U] | 0.59 |
| UAACGGGGGGCCGCAGCUGAAGCGUUCACGUCGCAGCCCCUGUCAGAUUCUGGAGUAUCUGCGAAUUCUGCUGUAUAUCUC [A5G A13G A18U U54A A56U] | 0.16 |
| UAACGGGGGGCCGCAGCUGAAGCGUUCACGUCGCAGCCCCUGUCAGAUUCUGGUGAAUCCGCGAAUUCUGCCGUAUAUCUC [A5G A13G A18U U60C U72C] | 0.09 |
| UAACGGGGGGCCGCAGCAGGAGCGUUCACGUCGCAGCCCCUGUCAGAUUCUGGUGAAUCUGCGAAUUCUGCUGAAUAUCUC [A5G A13G A20G U74A] | 0.81 |
| UAACGGGGGGCCGCAGCAGUAGCGUUCACGUCGCAGCCCCUGUCAGAUUCUGGUGUAUCUGCGAAUUCUACUGUAUAUCUC [A5G A13G A20U A56U G70A] | 0.12 |

| Variant | self-cleavage |
| --- | --- |
| UAACGGGGGGCCGCAGCAGUAGCAUUCACGUCGCUGCCCCUGUCAGAUUCUGGUGGAUCUGCGAAUUCUGCUGUAUAUCUC [A5G A13G A20U G24A A35U A56G] | 0.05 |
| UAACGGGGGGCCGCAGCAGUAGCGCUCACGUCGCAGCCCCUGUCAGAUUCUGGUGAAUCUGCGAAUUCUGCUGUAUAUCUC [A5G A13G A20U U25C] | 0.64 |
| UAACGGGGGGCCGCAGCAGACGCGUUCACGUCGCAGCCCCUGUCAGAUUCUGGUGAAUCUGCGAGUUCUGCUGUAUAACUC [A5G A13G A21C A65G U78A] | 0.18 |
| UAACGGGGGGCCGCAGCAGAGGCGUUCACGUCGCAGCCCCUGUCAGAUUCUGGUGGGUCUGCGAAUUCCGCUGUAUAUCUC [A5G A13G A21G A56G A57G U69C] | 0.31 |
| UAACGGGGGGCCGCAGCAGAUGCACUCACGUCGCAGCCCCUGUCAGACUCUGGUGAAUCUGCGAAUUCUGCUGUAUAUCUC [A5G A13G A21U G24A U25C U48C] | 0.32 |
| UAACGGGGGGCCGCAGCAGAAGCGUUCUCGUCGCAGCGCCUGUCAGAUUCUGGUGAAUCUGCGGAUUCUGCUGUAUAUCUC [A5G A13G A28U C38G A64G] | 0.31 |
| UAACGGGGGGCCGCAGCAGAAGCGUUCACGUCGCGGCCCCUGUCAGAUUCUGGUGAAUCUGCGAAUUCUGCUGUAUAUCUC [A5G A13G A35G] | 0.74 |
| UAACGGGGGGCCGCAGCAGAAGCGUUCACGUCGCUGCCCCUGUCAGAUUCUGGUGAGUCUGCGUAUUCUGCUGUAUAUCUC [A5G A13G A35U A57G A64U] | 0.04 |
| UAACGGGGGGCCGCAGCAGAAGCGUUCACGUCGCUGCCCCUGUCAGAUUCUGGUGAAUCCGCGGAUUCUGCUGUAUAUCUC [A5G A13G A35U U60C A64G] | 0.16 |
| UAACGGGGGGCCGCAGCAGAAGCGUUCACGUCGCAGCCCCUGUCCGAUUCUGGAGAAUCUGCGAAUUCUGCUGUAUAUCUC [A5G A13G A45C U54A] | 0.52 |
| UAACGGGGGGCCGCAGCAGAAGCGUUCACGUCGCAGCCCCUGUCGGAUUCUGGUGAAUCUGCGAAUUCUGCUGUAUAUCUC [A5G A13G A45G] | 0.72 |
| UAACGGGGGGCCGCAGCAGAAGCGUUCACGUCGCAGCCCCUGUCUGAUUCUGGUGUAUCUGCGAACUCUGCUGUAUAUCUC [A5G A13G A45U A56U U66C] | 0.07 |
| UAACGGGGGGCCGCAGCAGAAGCGUUCACGUCGCAGCCCCUGUCAGGUUCUGGUGAAUCUGCGAAUUCUGCUGUAUAUCUC [A5G A13G A47G] | 0.64 |
| UAACGGGGGGCCGCAGCAGAAGCGUUCACGUCGCAGCCCCUGUCAGAUUCUGGUGGACCUGCGAAUUCUGCUGUAUAUCUC [A5G A13G A56G U58C] | 0.4 |
| UAACGGGGGGCCGAAGCAGAAGCGCUCACGCCGCAGCCCCUGUCAGAUUCUGGUGAAUCUGCGAAUUGUGCUGCAUAUCUC [A5G A13G C14A U25C U31C C68G U74C] | 0.1 |
| UAACGGGGGGCCGCAGCAGAAGUGUUCACGUCGCAGCCCCUGUCAAAUUCAGGUGAAGCCGCGAAUUCUGCUGUAUAUCUC [A5G A13G C23U G46A U51A U58G U60C] | 0.09 |
| UAACGGGGGGCCGCAGCAGAAGCGUUCACGUCGCAGCGCCUGUCAGAUUCUGGUGAAUCUGCGGAUCCUGCUGUAUAUCUC [A5G A13G C38G A64G U67C] | 0.2 |
